# Assay results: the supplement of paper PMC10185492
# This is one part of the list. Read counts after selection give these values, which scatter widely.
# Test system: SARS-CoV-2 3CLpro (nsp5)
# Test: substrate phage enrichment score (protease-eluted vs HEPES control, +1 offset) (ratio); higher = better cleaved substrate
# Details: selection round: 3; protease elution time: 0.5 h
# Experimental: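 Random heptapeptide substrate phage display (M13 pIII fusion, heptapeptide between an N-terminal biotinylated AviTag GLNDIFEAQKIEWHE and pIII; phages immobilised on streptavidin) eluted by cleavage with 50 nM protease in 20 mM HEPES at 37 °C. Selected phages were NGS sequenced, and the enrichment score is (reads in protease sample + 1)/(reads in HEPES blank-selection control + 1).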
row,Substance,substrate phage enrichment score
1,HTQPTLS,> 28
2,RPGPQEQ,1.4
3,CTRPLPG,> 33
4,ACKYNRQ,> 61
5,KPTSLLD,1.14
6,RRCNISR,1.17
7,PHVSKPA,> 31
8,YSAAAHH,1.53
9,LNWRVTT,4.75
10,SEAAHHH,1.01
11,FAPTPHV,4.75
12,SDGTSYI,1.2
13,TAVTEGT,0.643
14,PGDTGAT,> 22
15,PTRPSSR,4.22
16,PYPAAHH,38.5
17,CSSKRPA,3.4
18,WYLTPNR,1.59
19,KPVDVSR,> 26
20,PRAAHHH,1
21,NQPSKPA,1.57
22,PWSTGMQ,0.289
23,ITPTRLQ,> 56
24,AKLQSQW,> 30

row,Substance,substrate phage enrichment score
1,RDCIREA,2
2,RQSTSPK,1.94
3,EHNSCLQ,> 32
4,TPAHHHH,1.07
5,LKPVQTR,5
6,NRRHCAR,15
7,ELNIQGG,> 27
8,KSSPAAH,1.41
9,YGEVTLQ,297
10,GGSYIMH,2.25
11,RDQPPAK,10.5
12,NPRCQHP,13
13,EAWSPPA,13.5
14,TKFLTNG,12
15,KKQTLLQ,> 107
16,QNFQGGS,0.6
17,IQCVVKP,0.353
18,CTQWPRS,0.4
19,KWTNLPR,6.33
20,LDFQGGS,0.811
21,SDYVRPR,2
22,ACQGNWR,1.73
23,TPPNSLR,0.656
24,ETFHASG,5

row,Substance,substrate phage enrichment score
1,TQMSTTS,> 22
2,SMAAHHH,0.773
3,TACLQGR,8.67
4,THSQWPN,19
5,SNPNHMI,5.9
6,CTDTLSR,> 159
7,SRTRLQG,138
8,CKLRKPV,2.83
9,KPNQSHQ,> 21
10,HQLASPK,0.857
11,RHNIRAG,0.0741
12,RSQCALH,15.5
13,GRPLHGQ,> 25
14,CDAAHHH,0.571
15,AHWKGMN,0.917
16,VYLQGWL,6.67
17,DKWVPTD,0.533
18,FSLSAGH,3.33
19,HQTKGPG,> 23
20,ASAPLLQ,> 260
21,DAAAHHH,0.76
22,LEHPNRA,> 31
23,PTHREGS,16.5
24,RQAAHHH,0.771

row,Substance,substrate phage enrichment score
1,RNQGIWQ,0.353
2,PTQFDRP,2.15
3,SAAAQHN,1.08
4,VCTGAAK,2.57
5,SPTPKCG,2.29
6,CAAAQQH,0.675
7,TERTNKL,5.44
8,IESITLQ,> 33
9,CQAAHHH,0.444
10,KHFQGGS,1.08
11,PRCPLTW,> 35
12,SRDEPYG,2.43
13,AKMRTGD,1.33
14,KTTQKGL,> 23
15,SNKRTCT,> 29
16,VPGRKPG,> 23
17,FPNGTQR,> 36
18,PVAAHHH,1.06
19,TNHHHHH,6.25
20,TKRSIYV,> 23
21,DIPQKLC,2
22,ALHLLPP,12
23,SEAAPCS,> 28
24,TTLFQAE,> 21

row,Substance,substrate phage enrichment score
1,ERYFQGG,2.12
2,EIRTMQA,5.75
3,FLTECHR,2.56
4,KQQRAWL,7.8
5,DLCETVN,> 35
6,KPVGVSP,2.33
7,SQAAHHH,1.33
8,KFSKFEG,2.12
9,LRPNCQI,18
10,SLYFQGG,0.875
11,LTAPHLD,0.529
12,VHNGKSG,1.33
13,CRLQSDS,> 25
14,CAAAHHH,0.799
15,SSAAHHH,1.35
16,WRELQSY,> 25
17,AANSCSH,1
18,PHEPINK,2.56
19,AVIRRTS,> 27
20,TTQEERV,6.43
21,GNSCVVS,0.684
